About 14,000 (4.5%) of roughly 310,000 compounds showed an effect of 50% or more. Effects have a minus sign here. This is one part of the list.
molecular target: human ether-à-go-go-related gene (hERG) potassium channel (human, UniProt Q12809); assay: primary screen, population patch clamp on CHO cells stably expressing hERG
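Note: peak tail current of the secondary pulse compared with the same well before compound.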

human ether-à-go-go-related gene (hERG) potassium channel, sequence (Q12809 whole entry, looked up): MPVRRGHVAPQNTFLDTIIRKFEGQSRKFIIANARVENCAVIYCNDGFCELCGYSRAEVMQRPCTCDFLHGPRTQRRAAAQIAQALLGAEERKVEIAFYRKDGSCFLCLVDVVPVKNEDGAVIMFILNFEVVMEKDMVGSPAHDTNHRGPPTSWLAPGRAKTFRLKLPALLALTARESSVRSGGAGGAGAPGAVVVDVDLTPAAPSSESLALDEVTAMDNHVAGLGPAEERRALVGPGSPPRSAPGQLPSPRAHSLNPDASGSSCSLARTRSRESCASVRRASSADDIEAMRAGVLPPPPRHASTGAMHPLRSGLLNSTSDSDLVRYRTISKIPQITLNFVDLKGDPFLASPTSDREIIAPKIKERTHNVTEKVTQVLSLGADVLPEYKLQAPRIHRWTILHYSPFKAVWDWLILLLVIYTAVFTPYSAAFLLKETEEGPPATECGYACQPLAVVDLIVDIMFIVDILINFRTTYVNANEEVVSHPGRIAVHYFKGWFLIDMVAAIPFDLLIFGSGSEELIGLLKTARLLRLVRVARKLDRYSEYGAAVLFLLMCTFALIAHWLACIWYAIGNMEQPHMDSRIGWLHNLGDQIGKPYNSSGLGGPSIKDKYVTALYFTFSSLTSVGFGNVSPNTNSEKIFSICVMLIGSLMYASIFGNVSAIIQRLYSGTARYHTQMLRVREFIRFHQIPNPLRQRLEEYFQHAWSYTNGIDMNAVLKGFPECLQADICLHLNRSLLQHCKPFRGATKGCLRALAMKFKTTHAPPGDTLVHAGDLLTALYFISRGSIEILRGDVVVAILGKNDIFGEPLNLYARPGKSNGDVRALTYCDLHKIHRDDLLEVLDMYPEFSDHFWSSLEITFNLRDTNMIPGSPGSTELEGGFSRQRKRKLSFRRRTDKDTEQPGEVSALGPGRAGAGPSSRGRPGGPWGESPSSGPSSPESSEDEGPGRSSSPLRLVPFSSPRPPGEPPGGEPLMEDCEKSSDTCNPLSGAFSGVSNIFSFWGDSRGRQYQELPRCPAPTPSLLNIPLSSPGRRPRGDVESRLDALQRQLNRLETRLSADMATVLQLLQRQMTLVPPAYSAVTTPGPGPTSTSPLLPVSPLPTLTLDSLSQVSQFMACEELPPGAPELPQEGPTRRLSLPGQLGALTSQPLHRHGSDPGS

SMILES	hERG current change (%, negative = inhibition) at 10uM [%]
COc1cccc(-c2nc3ccc(C(=O)N4CCCC(O)C4)cc3o2)c1 (stereo not drawn)	15.3
COC(=O)c1[nH]c2ccc(C)cc2c1NC(=O)CN1CCCC(C)(C)C1	0.331
COc1ccc2c(c1)C(=C(C#N)C#N)C(=O)N2CCc1ccccc1	7
Cc1cccc(OCC(O)Cn2c(=N)n(CCN3CCCCC3)c3ccccc32)c1.Cl (stereo not drawn)	-80.5
COc1ccc(-n2c(=S)[nH]c(=O)c3cccnc32)cc1	15.6
CCOC(=O)c1ccccc1NC(=O)COC(=O)CSc1ccccc1	10.8
CC(C)Cn1cc(C(=O)NCCCN2CCCC2=O)c2c3ccccc3n(C)c2c1=O	-5.95
Cc1ccc(S(=O)(=O)NCC(=O)NCc2ccncc2)cc1	2.32
CCN1CC=C(c2c[nH]c3ccccc23)CC1	-8.39
O=C(NCCCNc1ccnc2cc(Cl)ccc12)c1ccccc1F	-72.4
CC(C)(C)c1cc(NCc2ccccn2)n2ncc(-c3ccccc3)c2n1	15.6
O=C1C=C(Nc2ccccc2)C(=O)c2ccccc21	16.8
CCC(C)(C)NC(=O)/C=C/c1ccc(OC)c(S(=O)(=O)N2CCOCC2)c1	3.1
CCC(C)c1ccc(C(C)NC(=S)NCc2ccc(F)cc2)cc1 (stereo not drawn)	13.6
CN(CC(=O)Nc1ccccc1C(F)(F)F)C(=O)CSCc1ccccc1	-8.02
O=C1CCCCC1Sc1nnc(Nc2ccccc2)s1 (stereo not drawn)	-7.47
CC(COc1ccccc1Cc1ccccc1)N1CCCCC1.O=P(O)(O)O (stereo not drawn)	-70.1
Cc1cccc(C)c1NC1=NC2(CCCCC2)N=C(N)N1	9.71
CCOc1cc(/C=N/NC(=O)c2cc(C)[nH]n2)ccc1OC(=O)c1ccc([N+](=O)[O-])cc1	18.1
CCCCN(C(=O)c1ccc2c(c1)OCO2)c1c(N)n(CCCC)c(=O)[nH]c1=O	25.7
CC1CN(C(=S)Nc2ccccc2)CC(C)O1 (stereo not drawn)	2.54
CCCCNC(=S)Nc1ccc(C(F)(F)F)cc1	-52.8
O=C(Cn1nnc(-c2ccc3c(c2)OCO3)n1)NCc1ccccc1	11.3

SMILES	hERG current change (%, negative = inhibition) at 10uM [%]
O=C(COC(=O)c1cccs1)NCC1CCCO1 (stereo not drawn)	10.6
COc1ccc(C(=O)C2CCN(C(=O)Nc3ccccc3C)CC2)cc1	9.14
Cc1nc2nc(SCc3ccccc3)[nH]n2c(=O)c1CCC(C)C	-22.4
CNC(=O)c1sccc1SCc1c(Cl)cccc1Cl	-13.4
Cc1cc(C(=O)COc2ncnc3sccc23)c(C)n1C	-1.03
Cc1nc(C)c(/C(O)=C/c2nc3ccc([N+](=O)[O-])cc3oc2=O)o1	19.8
CCOC(=O)c1c(C)[nH]c(/C(C)=N/O)c1C	15
COc1ccc(CNC(=O)COC(=O)C2CCN(S(=O)(=O)c3ccccc3C(F)(F)F)CC2)cc1	-4.19
CCN(CC(=O)Nc1c(C(=O)OC)[nH]c2ccc(Cl)cc12)c1ccc2c(c1)OCO2	20.3
COC(=O)c1cccc(N2C(=O)C3CC=CCC3C2=O)c1 (stereo not drawn)	7.23
CCOC(=O)C1CCCN(C(=O)c2ccc(CS(=O)(=O)Cc3ccccc3C)o2)C1 (stereo not drawn)	-22
COc1ccccc1-c1nnc(Nc2nc3c(OC)cccc3s2)o1	7.81
C=CCNC(=O)CN1CCC(c2nc3cc(C)c(C)cc3[nH]2)CC1	-39.6
COc1ccc(N2CCN(Cc3nc4scc(-c5cccs5)c4c(=O)[nH]3)CC2)cc1	8.57
CCN(CC)CC(=O)N1CCCC(C(=O)c2ccccc2OC)C1 (stereo not drawn)	-10.3
O=C1CNC(=S)N1C(CO)c1ccccc1 (stereo not drawn)	22.2
Cc1ccc(NC(=O)NCCCN2CCCC2=O)cc1Cl	5.63
Cc1ccc(NS(=O)(=O)c2cccc3nsnc23)cc1C	-5.57
CSc1ccccc1OCc1cc(C(=O)N(Cc2nccn2C)C(C)C)no1	-7.73
CCCCCCNC(=O)Cc1nc2nc(C)cc(C)n2n1	-0.975
CCc1ccc(NC(=O)CCCNC(=O)Cn2cnc3sc(C)c(C)c3c2=O)cc1	3.86
Cc1nccc(-c2ccc(-n3cnc4ccccc43)cc2)n1	-20.3

Reference: article PMC4336329 (PLoS ONE, 2015)
